# Laboratory results as given in the supplement of paper PMC8183993.
# Counter-ions that a name gives are not always drawn. ± gives the standard deviation of the averaged measurements. The full ranking holds about 3,100 compounds; the median of “mean cytoplasmic OPP incorporation (global translation) relative to DMSO” is about 100, and the lowest 2% start at about 56. The list shows a part of the results.
# Tested on: U2OS
# Experiment: mean cytoplasmic OPP incorporation (global translation) relative to DMSO (% of DMSO); higher = more protein synthesis
# Conditions: 10 µM; 24 h
# Description: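 Primary image-based screen in U2OS cells: compounds at 10 uM for 24 h, then a 1 h o-propargyl-puromycin (OPP) pulse, click labelling, and high-throughput microscopy. Mean cytoplasmic OPP intensity and nuclei count were normalised to DMSO wells within each plate (DMSO = 100) and averaged over triplicate plates.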
row,SMILES,mean cytoplasmic OPP incorporation
1,COc1ccc(-c2cc(=S)ss2)cc1 [Anethole trithione],107
2,COc1ccc(-c2cc(=S)ss2)cc1 [Anethole-trithione],86.1
3,C#CCN[C@@H]1CCc2ccccc21 [Rasagiline mesylate],98.3
4,C1COC(NC(C2CC2)C2CC2)=N1 [Rilmenidine hemifumarate],97.6
5,C1COC(NC(C2CC2)C2CC2)=N1 [Rilmenidine],108
6,N#C/C(=C\c1ccc(O)c(O)c1)C(=O)OCCc1cccs1,97.3
7,COc1cc(OC2CCN(C)CC2)ccc1Nc1ncc2c(n1)n(C1CCCC1)c(=O)n2C,112
8,CCOc1nc2cccc(C(=O)OCc3oc(=O)oc3C)c2n1Cc1ccc(-c2ccccc2-c2noc(=O)[nH]2)cc1 [Azilsartan Medoxomil (TAK-491)],101
9,OC[C@H]1O[C@@H](n2cnc3c(NC4CCCC4)ncnc32)[C@H](O)[C@@H]1O [N6-Cyclopentyladenosine],105
10,O=C(O)c1cn(C2CC2)c2cc(N3CCNCC3)c(F)cc2c1=O [Ciprofloxacin hydrochloride monohydrate],102
11,CC1(C)CCC(C)(C)c2cc(C3(c4ccc(C(=O)O)cc4)OCCO3)ccc21,107
12,CC(C)NCC(O)COc1ccc(CCOCC2CC2)cc1 (stereo unspecified) [Betaxolol hydrochloride],101 ± 3.1
13,Cc1c(C(=O)NN2CCCCC2)nn(-c2ccc(Cl)cc2Cl)c1-c1ccc(I)cc1,98.1
14,CCc1nc(N)nc(N)c1-c1ccc(Cl)cc1 [Pyrimethamine],77.5
15,CC(=O)[C@@]1(O)CC[C@H]2[C@@H]3C[C@H](C)C4=CC(=O)C=C[C@]4(C)[C@@]3(F)[C@@H](O)C[C@@]21C [Fluorometholone],89.7
16,CCN(C(=O)c1c(O)c2c(Cl)cccc2n(C)c1=O)c1ccccc1,102
17,CN1CC(=O)N2[C@H](c3ccc4c(c3)OCO4)c3[nH]c4ccccc4c3C[C@@H]2C1=O [Tadalafil (Cialis)],104
18,C1CCC(C(CC2CCCCN2)C2CCCCC2)CC1 (stereo unspecified) [Perhexiline maleate],53
19,CC(NC(=O)c1ccccc1/N=C/c1c(O)ccc2ccccc12)c1ccccc1 (stereo unspecified) [Sirtinol],95.78 ± 0.67
20,Cc1cccc(-c2[nH]c(C(C)(C)C)nc2-c2ccc3c(c2)OCO3)n1,96.4
21,NC1CCN(c2cccc(Cl)n2)CC1,113
22,CC(C)(OCc1nn(Cc2ccccc2)c2ccccc12)C(=O)O [Bindarit],99.9
23,Cc1ccc(S(=O)(=O)N[C@@H](Cc2ccccc2)C(=O)CCl)cc1,90.5
24,COc1cc(C(=O)NCc2ccc(OCCN(C)C)cc2)cc(OC)c1OC [Trimethobenzamide hydrochloride],102
25,CCCN1CCCC[C@H]1C(=O)Nc1c(C)cccc1C [Ropivacaine HCl],97.5
26,"C[C@](N)(Cc1ccc(O)c(O)c1)C(=O)O [Methyldopa (L,-)]",108

row,SMILES,mean cytoplasmic OPP incorporation
1,COC(=O)/C=C/c1cccc(N(Cc2ccc(-c3ccc(N(C)C)cc3)cc2)C(=O)C2CCCCC2)c1 [Fexaramine],101
2,c1cnc(N2CCN(Cc3ccc4c(c3)OCO4)CC2)nc1 [Piribedil],97.1
3,c1cnc(N2CCN(Cc3ccc4c(c3)OCO4)CC2)nc1 [Piribedil hydrochloride],92.5
4,CCOC(=O)c1cnc2ccc(-c3cncc(NS(=O)(=O)c4ccccc4)c3)cn12,106
5,Clc1ccc(C(Cn2ccnc2)OCc2ccsc2Cl)c(Cl)c1 (stereo unspecified) [Tioconazole],101
6,CCCC1C(=O)N2C(N(C)C)=Nc3ccc(C)cc3N2C1=O (stereo unspecified) [Azapropazone],93.9
7,O=C(O)CNC(=O)C(CS)Cc1ccccc1 (racemic) [DL-Thiorphan],101
8,O=C(O)CNC(=O)C(CS)Cc1ccccc1 (racemic) [Thiorphan],99.5
9,COc1cc2c(cc1OC)CC(=O)N(CCCN(C)C[C@H]1Cc3cc(OC)c(OC)cc31)CC2 [Ivabradine HCl (Procoralan)],106
10,C[C@H]1c2cccc(O)c2C(=O)C2=C(O)[C@]3(O)C(=O)C(C(N)=O)=C(O)[C@@H](N(C)C)[C@@H]3[C@@H](O)[C@@H]21 [Doxycycline hydrochloride],107
11,C[C@H]1c2cccc(O)c2C(=O)C2=C(O)[C@]3(O)C(=O)C(C(N)=O)=C(O)[C@@H](N(C)C)[C@@H]3[C@@H](O)[C@@H]21 [Doxycycline HCl],98.4
12,N[C@@H](CSC(c1ccccc1)(c1ccccc1)c1ccccc1)C(=O)O [S-Trityl-L-cysteine],97.9
13,Cc1c(C(=O)NN2CCCCC2)nn(-c2ccc(Cl)cc2Cl)c1-c1ccc(Cl)cc1,109
14,O=C(CCCN1C(=O)c2cccc3cccc(c23)C1=O)NO [Nullscript],97.6
15,CSc1cc2c(cc1C(F)(F)F)N(C(=O)Nc1cccnc1)CC2,101
16,O=C(O)C(=O)O.[NH-][C@@H]1CCCC[C@H]1[NH-].[Pt+2] [Oxaliplatin],87.6
17,CC(C)C(=O)Oc1ccc(CO)cc1[C@H](CCN(C(C)C)C(C)C)c1ccccc1 [Fesoterodine fumarate (Toviaz)],97.5
18,Cc1nn(-c2ccccc2)c(C)c1C=NN1CCN(Cc2ccccc2)CC1,105
19,Cc1cc2nc3c(=O)[nH]c(=O)nc-3n(C)c2cc1C=O,101
20,Cc1ccc(NC(=O)c2ccc(CN3CCN(C)CC3)cc2)cc1Nc1nccc(-c2cccnc2)n1 [Imatinib Mesylate],130
21,Cc1ccc(NC(=O)c2ccc(CN3CCN(C)CC3)cc2)cc1Nc1nccc(-c2cccnc2)n1 [Imatinib mesylate],121 ± 11
22,Cc1ccc(NC(=O)c2ccc(CN3CCN(C)CC3)cc2)cc1Nc1nccc(-c2cccnc2)n1 [Imatinib (STI571)],124
23,Cc1ccc(NC(=O)c2ccc(CN3CCN(C)CC3)cc2)cc1Nc1nccc(-c2cccnc2)n1 [Imatinib],120
24,N=C(N)c1ccc(N2CCN(C3CCN(CC(=O)O)CC3)CC2)cc1,99.3
25,CCOC(=O)O[C@]1(C(=O)OCCl)CC[C@H]2[C@@H]3CCC4=CC(=O)C=C[C@]4(C)[C@H]3[C@@H](O)C[C@@]21C [Loteprednol etabonate],122
26,CCc1cc2c(cc1N1CCC(N3CCOCC3)CC1)C(C)(C)c1[nH]c3cc(C#N)ccc3c1C2=O,106

row,SMILES,mean cytoplasmic OPP incorporation
1,COc1ccc2c(c1)c(CC(=O)O)c(C)n2C(=O)c1ccc(Cl)cc1 [Indomethacin],87.76 ± 0.71
2,Nc1nc2ccc(OC(F)(F)F)cc2s1 [Riluzole hydrochloride],95.4 ± 1.5
3,Nc1nc2ccc(OC(F)(F)F)cc2s1 [Riluzole],97.7
4,CN1CCC(=C2c3ccccc3CCc3cccnc32)CC1 [Azatadine dimaleate],103
5,CNC(=O)c1cc(Oc2ccc(NC(=O)Nc3cc(C(C)(C)C)nn3-c3ccc4ncccc4c3)c(F)c2)ccn1 [DCC-2036 (Rebastinib)],106
6,C[C@]1(O)C[C@@H](c2nc(-c3ccc4ccc(-c5ccccc5)nc4c3)c3c(N)nccn32)C1 [Linsitinib (OSI-906)],104
7,C[C@]1(O)C[C@@H](c2nc(-c3ccc4ccc(-c5ccccc5)nc4c3)c3c(N)nccn32)C1 [OSI-906 (Linsitinib)],104
8,O=C(C1CCCCC1)N1CC(=O)N2CCc3ccccc3C2C1 (stereo unspecified) [Praziquantel],103
9,C[C@@H]1CCO[C@H]2Cn3cc(C(=O)NCc4ccc(F)cc4F)c(=O)c(O)c3C(=O)N12,108
10,C(=C\c1ccccc1)/CN1CCN(C(c2ccccc2)c2ccccc2)CC1 [Cinnarizine],108
11,CCOC(=O)O[C@]1(C(=O)COC(=O)CC)CC[C@H]2[C@@H]3CCC4=CC(=O)C=C[C@]4(C)[C@H]3[C@@H](O)C[C@@]21C [Prednicarbate],117
12,CN(C)CCN(C)C(=O)c1ccc(NC(=O)Nc2ccc(-c3nc(N4CCOCC4)c4ccn(CC(F)(F)F)c4n3)cc2)cc1,74.4
13,O=C(Nc1ccccc1-c1cn2c(CN3CCNCC3)csc2n1)c1cnc2ccccc2n1,48.8
14,COc1ccc2c(c1OC)C(=O)O[C@@H]2[C@H]1c2c(cc3c(c2OC)OCO3)CCN1C [Noscapine hydrochloride],96.7
15,CC(=O)NCCCS(=O)(=O)O [Acamprosate calcium],101
16,O=C(O)c1cc(/N=N/c2ccc(O)c(C(=O)O)c2)ccc1O [Olsalazine Sodium],105
17,C/C=C1\C(=O)C[C@H]2[C@@H]3CCC4=CC(=O)CC[C@]4(C)[C@H]3CC[C@]12C [Guggulsterone],89.7
18,C/C=C1\C(=O)C[C@H]2[C@@H]3CCC4=CC(=O)CC[C@]4(C)[C@H]3CC[C@]12C [Z-Guggulsterone],105
19,CC(C)(C)NCC(O)COc1cccc2c1CCC(=O)N2 (stereo unspecified) [Carteolol hydrochloride],101
20,N#Cc1cc2c(OCC(O)CN3CCN(C(c4ccccc4)c4ccccc4)CC3)cccc2[nH]1 (stereo unspecified),107
21,C=C1c2c(Cl)ccc(O)c2C(=O)C2=C(O)[C@]3(O)C(=O)C(C(N)=O)=C(O)[C@@H](N(C)C)[C@@H]3[C@@H](O)[C@H]12.O=C(O)c1cc(S(=O)(=O)O)ccc1O [Meclocycline sulfosalicylate],98.9
22,CNC(=O)c1cc(Oc2ccc(NC(=O)Nc3ccc(Cl)c(C(F)(F)F)c3)c(F)c2)ccn1 [Regorafenib (BAY 73-4506)],96.4
23,O=C(NCc1ccccc1)c1csc(Nc2ccncn2)n1 [Thiazovivin],96.2 ± 1.8
24,CC(C)NCC(O)COc1ccccc1-n1cccc1 (stereo unspecified) [Isamoltane hemifumarate],94.6
